Assay results published in PMC4336329 (PLoS ONE, 2015).
Out of some 310,000 compounds screened, about 2,200 (0.71%) showed an effect of 50% or more. The effect is printed as a negative number. This is one part of the list.

Each compound was assayed against human ether-à-go-go-related gene (hERG) potassium channel (human, UniProt Q12809) (assay: primary screen, population patch clamp on CHO cells stably expressing hERG).
human ether-à-go-go-related gene (hERG) potassium channel, sequence (Q12809 whole entry, looked up): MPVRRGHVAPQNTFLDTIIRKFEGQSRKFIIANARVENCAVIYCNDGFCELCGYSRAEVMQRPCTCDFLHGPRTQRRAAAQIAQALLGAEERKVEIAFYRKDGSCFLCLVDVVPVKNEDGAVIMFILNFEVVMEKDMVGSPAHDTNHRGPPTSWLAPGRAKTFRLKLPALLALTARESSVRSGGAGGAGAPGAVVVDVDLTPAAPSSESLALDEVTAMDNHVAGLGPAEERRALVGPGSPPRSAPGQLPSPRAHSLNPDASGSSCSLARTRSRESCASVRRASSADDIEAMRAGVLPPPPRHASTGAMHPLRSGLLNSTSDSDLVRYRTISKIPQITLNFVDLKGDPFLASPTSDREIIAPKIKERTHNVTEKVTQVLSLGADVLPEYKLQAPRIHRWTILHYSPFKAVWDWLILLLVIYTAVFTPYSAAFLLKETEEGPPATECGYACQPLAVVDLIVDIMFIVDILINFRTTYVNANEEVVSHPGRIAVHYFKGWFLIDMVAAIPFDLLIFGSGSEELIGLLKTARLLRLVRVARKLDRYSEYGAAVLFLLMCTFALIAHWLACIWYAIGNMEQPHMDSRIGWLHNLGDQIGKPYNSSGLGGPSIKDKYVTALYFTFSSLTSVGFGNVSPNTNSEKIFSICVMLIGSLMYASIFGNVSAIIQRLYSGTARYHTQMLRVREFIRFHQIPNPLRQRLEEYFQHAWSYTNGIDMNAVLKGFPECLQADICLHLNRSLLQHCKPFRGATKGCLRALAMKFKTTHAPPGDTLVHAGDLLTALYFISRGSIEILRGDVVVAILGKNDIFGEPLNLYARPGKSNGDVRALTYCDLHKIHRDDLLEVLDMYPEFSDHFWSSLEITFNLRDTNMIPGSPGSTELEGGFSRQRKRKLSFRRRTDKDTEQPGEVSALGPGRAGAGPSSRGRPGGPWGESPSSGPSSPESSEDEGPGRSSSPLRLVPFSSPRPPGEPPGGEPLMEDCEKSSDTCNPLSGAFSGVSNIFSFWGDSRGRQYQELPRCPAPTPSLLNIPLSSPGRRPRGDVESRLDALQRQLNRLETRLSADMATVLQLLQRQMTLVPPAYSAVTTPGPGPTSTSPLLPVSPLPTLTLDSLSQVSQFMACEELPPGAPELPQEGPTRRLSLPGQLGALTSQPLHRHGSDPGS

SMILES	hERG current change (%, negative = inhibition) at 1uM
COc1ccc(-c2cc(C(=O)OC3CCOC3=O)c3ccccc3n2)cc1 (centres unmarked)	3.48%
O=C(Nc1nccs1)C1CCN(S(=O)(=O)c2ccc3c(c2)OCCCO3)CC1	-3.99%
Cc1c(Cl)cccc1NC(=O)CCS(=O)(=O)c1cccc2nonc12	6.07%
O=C(CN1CCc2ccccc2C1)Nc1cc(S(=O)(=O)N2CCOCC2)ccc1N1CCCC1	4.22%
COc1ccc(NC(=O)NNc2cc(N3CCOCC3)nc(N3CCOCC3)n2)cc1	5.41%
COc1ccc(C(=O)NC(=S)N2CCOCC2)cc1[N+](=O)[O-]	7.84%
Cn1nc(C(=O)OCC(=O)NCCc2ccccc2)c2ccccc2c1=O	4.59%
CS(=O)(=O)N(CC(=O)Nc1ccc2c(c1)OCCO2)Cc1ccccc1	13.1%
O=C(CN1C(=O)c2ccccc2C1=O)Nc1cccnc1	9.29%
CC(C)(C)c1ccc(O)c(N=Cc2c(O)ccc3ccccc23)c1	4.34%
CC(=O)Oc1c(-c2ccco2)oc2ccccc2c1=O	5.11%
Cc1cccc(NC(=S)N2CCN(c3cc(C)ccc3C)CC2)c1	15.8%
CCn1cc(S(=O)(=O)Nc2cccnc2)cn1	13.7%
CC(=O)N1CCc2cc(C(=O)CN3CCN(C(=O)c4ccco4)CC3)ccc21	12.6%
CCOCC(=O)Nc1ccc2c(c1)OCCO2	13.1%
COc1cc(NC(=O)c2cc([N+](=O)[O-])ccc2NC(=O)CNCc2ccccn2)cc(OC)c1	14.5%
O=C(COC(=O)c1cnccn1)c1ccc2ccccc2c1	14.3%
COc1ccccc1N(C)S(=O)(=O)c1ccc(Cl)c(C(=O)NC2=NCCS2)c1	21.6%
Cn1cccc1C(=O)N1CCc2ccccc2C1	12.9%
CCCCOc1ccc(C2/C(=C(\O)c3ccc4c(c3)OCCO4)C(=O)C(=O)N2CCCN2CCOCC2)cc1 (centres unmarked)	16.1%
Cc1cnc(NC(=O)c2ccc(Cl)nc2)s1	14.9%
CC(C)OCCCNC(=O)c1ccc2c(=O)n(Cc3ccc4c(c3)OCO4)c(=S)[nH]c2c1	6.77%

SMILES	hERG current change (%, negative = inhibition) at 1uM
Cc1ccc(C(C)C)c(OCc2ccc(C(=O)N/N=C/c3ccc(O)c(O)c3)cc2)c1	11.3%
O=C(Cn1c(NCCO)nc2ccccc21)NCCc1ccc(F)cc1	8.91%
CN(C)c1ccc(C(=O)Nc2cc(C(F)(F)F)ccc2-n2cncn2)cc1	4.88%
CC(C)n1ncc2c(C(=O)N3CCN(Cc4ccc(Cl)s4)CC3)cc(C3CC3)nc21	5.19%
COc1ccc2c(CC(=O)NCC3CCC(C(=O)O)CC3)cc(=O)oc2c1 (centres unmarked)	2.86%
O=C(O)CCn1cc(C=C2C(=O)NC(=S)NC2=O)c(-c2cccc(Br)c2)n1	17.2%
CSc1ccccc1OCc1cc(C(=O)N(C)Cc2ccc(C)o2)no1	7.87%
CCc1cc(=O)oc2cc(OCC(=O)OC)c(Cl)cc12	-2.13%
CC(C)C1Cc2c(sc3[nH]c(=S)n(Cc4ccccc4)c(=O)c23)CO1 (centres unmarked)	10.6%
CCS(=O)(=O)N1CCC(C(=O)NCc2ccco2)CC1	10.1%
CCOC(=O)C[C@H]1c2ccc(C(F)(F)F)cc2S(=O)(=O)N1Cc1ccccc1	7.82%
CCO[C@@H]1OC(C(=O)NCc2ccccc2)=C[C@H](c2ccc(C(F)(F)F)cc2)[C@H]1CCCO	-0.0755%
C[C@H]1CN=C(Nc2ccccc2)N1CCCC1CCCCC1	-33.9%
Cc1cc(C(=O)Nc2ccccc2)c2ccccc2n1	17.5%
O=C(NC(=S)NC(CO)Cc1ccccc1)c1ccc(F)cc1 (centres unmarked)	9.49%
O=C(Nc1ccccc1)c1ccccc1NC(=O)[C@H]1CCCC[C@H]1C(=O)O	15.3%
O=C(C1CC(=O)N(C2CCCC2)C1)N1CCC(Cc2ccccc2)CC1 (centres unmarked)	9.43%
CCOc1ccccc1CN1CCNC(=O)C1CC(=O)NCc1nc(C)cs1 (centres unmarked)	-5.34%
Clc1ccccc1Sc1cnc2ccccc2n1	-5.31%
COc1ccc(N2CC(C(=O)N3CCN(c4ccccc4F)CC3)CC2=O)cc1 (centres unmarked)	-6.33%
COCCNC(=S)Nc1ccc(N2CCCCC2)cc1	0.561%
COc1ccc(-c2ccc3nnc(SCC(=O)Nc4ccc(NC(C)=O)cc4)n3n2)cc1	11.9%
